In PubChem BioAssay AID485344 (National Center for Advancing Translational Sciences (NCATS), 2010):
Out of some 340,000 compounds screened, about 6,900 (2%) were called active. Cut-off read from the data, not from the text of the source: active = inhibition above about 30%; inactive = below that, where a call was filed. The list shows a part of the results, in another mix than the full data. Entries without a call were filed so in the source.
Note: 0% is about no effect.

Each molecule was assayed against D(2) dopamine receptor (Homo sapiens) (UniProt P14416) (assay: HTS Assay for Allosteric Antagonists of the Human D2 Dopamine Receptor: Primary Screen for Antagonists). Conditions: HEK293 TREx D2 cells, calcium flux, dopamine EC80; at 10 µM; stronger effect = higher value.
Chain of UniProt P14416 (P14416 whole entry, looked up): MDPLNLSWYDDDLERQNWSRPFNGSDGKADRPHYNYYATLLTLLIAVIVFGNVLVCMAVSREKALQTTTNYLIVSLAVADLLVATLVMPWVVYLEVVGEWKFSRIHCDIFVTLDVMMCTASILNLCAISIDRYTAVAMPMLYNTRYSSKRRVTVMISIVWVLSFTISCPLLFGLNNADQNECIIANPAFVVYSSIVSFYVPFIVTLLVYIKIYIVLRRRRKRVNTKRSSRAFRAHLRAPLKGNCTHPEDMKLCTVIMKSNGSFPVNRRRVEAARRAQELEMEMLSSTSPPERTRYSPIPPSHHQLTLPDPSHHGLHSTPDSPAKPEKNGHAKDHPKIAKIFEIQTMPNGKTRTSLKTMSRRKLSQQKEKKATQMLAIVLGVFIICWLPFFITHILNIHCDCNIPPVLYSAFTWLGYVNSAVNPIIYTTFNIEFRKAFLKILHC
Summary of the method: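 Antagonism is scored as inhibition of an EC80 dopamine-evoked calcium signal in a force-coupled, tetracycline-inducible HEK293 T-REx D2 line, with compound present 180 s before agonist.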
Molecule `Cc1ccc(C(=O)Nc2ccccc2)cc1S(=O)(=O)Nc1ccc(Br)cc1` has an inhibition of 8.62%.
In the case of `CCOc1ccc2c(c1)sc1nc(=O)n(-c3ccc(Cl)c(Cl)c3)c(=O)n12`, the inhibition is reported as -7%.
`Cc1ccc(OCc2nc(-c3ccc(C(=O)N4CCN(c5cccc(C(F)(F)F)c5)CC4)cc3)oc2C)cc1` was tested, and the inhibition was -1.32%.
`CCOC(=O)CCn1cnc2onc(-c3cc(OC)ccc3Cl)c2c1=O` showed an inhibition of -10.3%.
`COc1ccc(N(CC(C)C)S(=O)(=O)c2nnc(NC(=O)c3cccs3)s2)cc1` showed an inhibition of -2.84%.
For `CSc1cccc(NC(=O)C2CCN(S(=O)(=O)c3ccc4c(c3)CCCN4C(=O)C3CCC3)CC2)c1`, the inhibition was 15.5%.
In the case of `Cc1c(Cl)cccc1NC(=O)CNS(=O)(=O)c1cccs1`, the inhibition is reported as 1.48%.
With `Cc1ccc(C2CCN(C(=O)Nc3ccc(Cl)cc3)C2)cc1` (stereo unspecified) the inhibition was 10.3%.
Molecule `Cc1cc(=O)[nH]c2nnc(SCc3c(F)cccc3Cl)n12` has an inhibition of 24.5%.
Molecule `CCc1ccc(C2c3c(oc4ccc(F)cc4c3=O)C(=O)N2CCc2ccc(OC)cc2)cc1` (stereo unspecified) has an inhibition of -0.345%.
For `COc1ccc(S(=O)(=O)NCCc2sc(-c3cccnc3)nc2C)c(F)c1`, the inhibition was -21.7%.
`CC1CCc2c(sc3nnn(CCCCOc4ccc(Cl)cc4)c(=O)c23)C1` (stereo unspecified) was tested, and the inhibition was 5.23%.
`COc1ccc(CNCCCSc2nnnn2-c2ccccc2)cc1` gave an inhibition of -22.6%.
For `COc1ccc(-c2cc(C(=O)NC(C)c3ccccc3)c3cc(C(C)C)ccc3n2)cc1` (stereo unspecified), the inhibition was -4.52%.
With `CCOC(=O)c1c(NC(=O)c2cc(OCC)c(OCC)c(OCC)c2)sc2c1CCCCC2` the inhibition was 17.6%.
Molecule `O=C(Nc1ccccc1C(F)(F)F)c1cc(-c2ccc3c(c2)OCCO3)on1` has an inhibition of -9.55%.
Molecule `CCN(CC)CCNC(=O)C(=O)NCC(c1cccnc1)N1CCN(c2ccc(F)cc2)CC1` (stereo unspecified) has an inhibition of 17.5%.
`COc1cccc(CNC(=O)c2ccc(CNS(=O)(=O)c3ccc(C)cc3)cc2)c1` was tested, and the inhibition was 9.97%.
With `O=C(Nc1ccccc1)N(Cc1c[nH]c2ccccc12)C1CCCCCC1` the inhibition was 3.3%.
Work on `Cc1cccc(OCc2nc(CC(=O)Nc3ccc(C)cc3C)cs2)c1` yielded an inhibition of -8.91%.
`CC1CCN(S(=O)(=O)c2cc(C(=O)NC3(C)CCS(=O)(=O)C3)ccc2Br)CC1` (stereo unspecified) was tested, and the inhibition was active: 30.5%.
`Cc1cccc(N2CCN(C(=O)c3cnn(-c4ccccc4Cl)c3C3CCN(C(=O)OC(C)(C)C)CC3)CC2C)c1` (stereo unspecified) gave an inhibition of 1.95%.
Work on `CCOC(=O)c1c(S(=O)(=O)N2CCCC(C(=O)NCc3ccccc3Cl)C2)c(C)n(C)c1C` (stereo unspecified) yielded an inhibition of -6.74%.
For `CC(=O)Nc1cc2c(cc1C(=O)c1ccc(C)cc1)OCCO2`, the inhibition was active: 33.5%.
With `COc1cc(NC(=O)C2CCN(S(=O)(=O)c3ccc4c(c3)CCCC(=O)N4)CC2)cc(OC)c1` the inhibition was -8.21%.
`CCOc1ccccc1NC(=O)CSc1nc2c(sc3ccccc32)c(=O)n1CCCC(=O)NC1CCCC1` gave an inhibition of -21.6%.
